The test system of experiment [1] is HSkMC (human skeletal muscle cells). The experiment is described as follows: cytotoxicity call (relative viability < 0.9). Particulars: 10 µM.
Experiment [2] concerns S. aureus RN4220. The experiment is described as follows: growth inhibition call (relative growth <= 0.2). To be noted: 50 µM.

Some of the results follow.

Turning to `C[C@H](CO)N1C[C@H](C)[C@@H](CN(C)S(=O)(=O)c2ccc(Cl)cc2)Oc2ccc(NS(=O)(=O)c3cn(C)cn3)cc2C1=O`, in experiment [1], the cytotoxicity call was “inactive”. Also, the growth inhibition call in experiment [2] was “inactive”.

Take `COc1ccc2c3c([nH]c2c1)[C@@H](CO)N(C[C@]13CCN(CC1)C(=O)Nc1cccc(c1)F)C(=O)c1ccc(cc1)F`: the cytotoxicity call in experiment [1] was “inactive”. For the same compound, in experiment [2], the growth inhibition call was “inactive”.

As to `C[C@@H]1CCCCO[C@H](CN(C)S(=O)(=O)c2ccc(Cl)cc2)[C@H](C)CN([C@@H](C)CO)C(=O)c2cc(NC(=O)C3CCCCC3)ccc2O1`, the cytotoxicity call in experiment [1] is “inactive”. Besides, the growth inhibition call in experiment [2] was “inactive”.

For the compound `C[C@@H]1CCCCO[C@H](CN(C)S(=O)(=O)c2ccc(Cl)cc2)[C@@H](C)CN([C@H](C)CO)C(=O)c2cc(NC(=O)c3ccccc3)ccc2O1`, the cytotoxicity call in experiment [1] was “inactive”. Besides, the growth inhibition call in experiment [2] was “inactive”.

As to `C[C@@H]1CN([C@H](C)CO)C(=O)Cc2cc(NC(=O)Nc3ccc(C(F)(F)F)cc3)ccc2O[C@H]1CN(C)Cc1ccncc1`, the cytotoxicity call in experiment [1] is “inactive”. Besides, in experiment [2], the growth inhibition call was “inactive”.

As to `COc1cccc(NC(=O)N(C)C[C@@H]2Oc3cc(Br)ccc3S(=O)(=O)N([C@@H](C)CO)C[C@H]2C)c1`, in experiment [1], the cytotoxicity call is “inactive”. In addition, in experiment [2], the growth inhibition call is “inactive”.

For `COc1ccc([Si](C)(C)[C@@H]2[C@@H](CC(=O)N(CCO)Cc3ccccc3)O[C@]3(C(=O)N(Cc4ccc(N5CCC5=O)cc4)c4ccccc43)[C@H]2C)cc1`, the cytotoxicity call in experiment [1] was “inactive”. Besides, the growth inhibition call in experiment [2] was “inactive”.

Take `CCCN(C)C[C@@H]1Oc2cc(C#Cc3ccccc3OC)ccc2S(=O)(=O)N([C@@H](C)CO)C[C@@H]1C`: the cytotoxicity call in experiment [1] was “inactive”. The growth inhibition call in experiment [2] is “inactive”.

Turning to `C[C@@H]1CCCCO[C@@H](CN(C)C(=O)Nc2cccc3ccccc23)[C@@H](C)CN([C@H](C)CO)C(=O)c2cc(NC(=O)C3CCCCC3)ccc2O1`, the cytotoxicity call in experiment [1] is “active”. Also, the growth inhibition call in experiment [2] was “inactive”.

As to `Cc1ccc(S(=O)(=O)N(C)C[C@H]2OCCCC[C@H](C)Oc3ccc(NC(=O)NC4CCCCC4)cc3C(=O)N([C@@H](C)CO)C[C@H]2C)cc1`, the cytotoxicity call in experiment [1] is “inactive”. Further, in experiment [2], the growth inhibition call is “inactive”.

`O=C(C[C@@H]1C[C@@H]2c3cc(NC(=O)Nc4ccc(C(F)(F)F)cc4)ccc3O[C@@H]2[C@@H](CO)O1)NCc1ccc(Cl)cc1`: the cytotoxicity call in experiment [1] was “inactive”. For the same compound, in experiment [2], the growth inhibition call was “inactive”.

Turning to `COc1cc(C(=O)NS(=O)(=O)c2ccccc2C)ccc1Cc1cn(C)c2ccc(NC(=O)OC3CCCC3)cc12`, in experiment [1], the cytotoxicity call was “inactive”. The growth inhibition call in experiment [2] was “active”.

For `C[C@H]1CN([C@@H](C)CO)C(=O)c2c(c3ccccc3n2C)-c2ccccc2CO[C@@H]1CN(C)S(C)(=O)=O`, the cytotoxicity call in experiment [1] was “inactive”. The growth inhibition call in experiment [2] was “inactive”.

Consider `O=c1cn[nH]c(NC2CCCC2)n1`, for which the cytotoxicity call in experiment [1] is “inactive”. The growth inhibition call in experiment [2] is “inactive”.

Regarding `Cn1c(=O)c(C(=O)NCCO)c(O)c2ccccc21`, the cytotoxicity call in experiment [1] is “inactive”. In experiment [2], the growth inhibition call was “inactive”.

Turning to `COc1c(O[C@@H]2O[C@H](CO)[C@@H](O)[C@H](O)[C@H]2O)cc2oc(-c3ccc(O)c(O)c3)c(O)c(=O)c2c1O`, the cytotoxicity call in experiment [1] was “inactive”. For the same compound, in experiment [2], the growth inhibition call is “inactive”.

With `C[C@H]1CN([C@@H](C)CO)S(=O)(=O)c2ccc(Br)cc2O[C@@H]1CN(C)C(=O)Nc1ccc2c(c1)OCO2`, in experiment [1], the cytotoxicity call was “inactive”. Also, in experiment [2], the growth inhibition call is “inactive”.

With `Cc1ccc(OC[C@@H](O)CN)c(C)c1`, in experiment [1], the cytotoxicity call is “inactive”. In addition, the growth inhibition call in experiment [2] is “inactive”.

Take `CN(C)C(=O)c1cccc(-c2cccc(-c3nc(C(=O)N4CCCCC4)cc4c3[C@H](CCO)N([S@@](=O)C(C)(C)C)C4)c2)c1`: the cytotoxicity call in experiment [1] is “inactive”. For the same compound, in experiment [2], the growth inhibition call is “inactive”.

On to `C[C@H]1CN([C@@H](C)CO)C(=O)Cc2cc(NC(=O)Nc3cccc4ccccc34)ccc2O[C@H]1CN(C)Cc1ccc2c(c1)OCO2`, for which the cytotoxicity call in experiment [1] was “inactive”. Moreover, in experiment [2], the growth inhibition call was “inactive”.

For `C[C@@H]1CCCCO[C@@H](CN(C)S(=O)(=O)c2cccs2)[C@@H](C)CN([C@H](C)CO)C(=O)c2cc(NC(=O)CCC(F)(F)F)ccc2O1`, the cytotoxicity call in experiment [1] is “inactive”. The growth inhibition call in experiment [2] was “inactive”.

For `O=C1C[C@@](C(=O)NCc2ccccc2)(c2ccc([N+](=O)[O-])cc2)[C@@H](c2ccc(CO)cc2)N1CC12CC3CC(CC(C3)C1)C2`, the cytotoxicity call in experiment [1] was “inactive”. The growth inhibition call in experiment [2] is “inactive”.

Consider `CN1C(=O)c2cc(NC(=O)Cc3cccs3)ccc2OC[C@@H]2O[C@@H](CC(=O)NCCCN3CCOCC3)CC[C@H]21`, for which the cytotoxicity call in experiment [1] was “inactive”. Besides, the growth inhibition call in experiment [2] is “inactive”.

With `COc1ccc(S(=O)(=O)N(C)C[C@@H]2Oc3ccc(NS(=O)(=O)c4cn(C)cn4)cc3CC(=O)N([C@@H](C)CO)C[C@@H]2C)cc1`, in experiment [1], the cytotoxicity call was “inactive”. For the same compound, the growth inhibition call in experiment [2] was “inactive”.

`CCCC#Cc1ccc2c(c1)O[C@@H](CN(C)S(=O)(=O)c1cccc(OC)c1)[C@@H](C)CN([C@@H](C)CO)S2(=O)=O`: the cytotoxicity call in experiment [1] was “inactive”. Further, the growth inhibition call in experiment [2] was “inactive”.

Regarding `O=C(O)c1ccc(N[C@@H]2O[C@H](CO)[C@@H](O)[C@H](O)[C@H]2O)cc1`, the cytotoxicity call in experiment [1] is “inactive”. In addition, the growth inhibition call in experiment [2] is “inactive”.

`Cc1ccc(S(=O)(=O)N(C)C[C@@H]2OCCCC[C@@H](C)Oc3ccc(NC(=O)Nc4ccc(C(F)(F)F)cc4)cc3C(=O)N([C@@H](C)CO)C[C@@H]2C)cc1`: in experiment [1], the cytotoxicity call is “inactive”. Moreover, the growth inhibition call in experiment [2] is “inactive”.

In the case of `C[C@@H]1CN([C@@H](C)CO)C(=O)Cc2cc(NS(=O)(=O)c3cccs3)ccc2O[C@@H]1CN(C)S(=O)(=O)c1cn(C)cn1`, in experiment [1], the cytotoxicity call was “inactive”. For the same compound, in experiment [2], the growth inhibition call is “inactive”.

For the compound `C[C@@H]1CN([C@@H](C)CO)C(=O)c2cccc(NC(=O)Nc3ccccc3)c2O[C@@H]1CN(C)Cc1ccc(C(F)(F)F)cc1`, the cytotoxicity call in experiment [1] is “inactive”. The growth inhibition call in experiment [2] is “inactive”.

The values above are taken from the antibiotic and cytotoxicity screens of Wong et al. (2023).
